Reference: patent US11613560B2, “Bicyclic peptide ligands specific for OX40” (BicycleTx Limited, priority 2019, dated 2023)
pEC50: −log10 of the molar value. Entries after “also recorded” stand apart in the source; their conditions may differ. Like-named read-outs stand apart in the source and are kept apart here. Not every detail of the peptide structures is certain; ends, links or a residue may be inferred. Some compounds share one wording; it may come from a single statement. Some of these results come from one statement about several compounds together. Starred links: 1 amine or outer side, 2 acyl side, 3 side chain; linkers in the order of their positions; H or OH if unused. Positions of bridges follow the written chain, without caps; N, C: chain ends. Non-standard residues stand in square brackets, D forms with d. Residues, ends and D or L forms follow the SMILES beside them. *: point of attachment. TATA = O=C(CC[*:1])N1CN(C(=O)CC[*:2])CN(C(=O)CC[*:3])C1; Biotin = O=C1N[C@H]2[C@H](CS[C@H]2CCCCC(=O)*)N1; Sar = CNCC(=O)O

Biological target: T1, OX40 (Homo sapiens, UniProt P43489)
T1 construct: host or cells: OX40 Jurkat cells (NF-kB luciferase reporter)
T1 sequence (P43489 29-277): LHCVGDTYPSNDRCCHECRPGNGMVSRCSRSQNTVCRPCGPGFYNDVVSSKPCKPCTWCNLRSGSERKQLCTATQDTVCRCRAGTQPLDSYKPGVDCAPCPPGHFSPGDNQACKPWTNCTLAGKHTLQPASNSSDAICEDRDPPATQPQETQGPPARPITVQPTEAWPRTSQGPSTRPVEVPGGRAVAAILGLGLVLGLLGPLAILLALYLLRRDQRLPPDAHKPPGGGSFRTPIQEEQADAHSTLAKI
Experiment: Promega OX40 cell-activity assay (NF-κB luciferase read-out in OX40 Jurkat cells)
Type: cell-based
Conditions: for agonism of OX40 / EC50: biotinylated peptides bound to streptavidin in a tetrameric format; for agonism of OX40: BCY12019 synthetic tetramer; for EC50: read-out: EC50 (nM), 2 independent experiments

[1] = BCY12019 synthetic tetramer (single value)

Compound | agonism of OX40 | EC50 [nM] | EC50 [1] [nM] | pEC50 (bound to streptavidin in a tetrameric format, read-out: EC50 values in the OX40 cell-based assay (bound stated in text))
CC[C@H](C)[C@@H]1NC(=O)[C@H](Cc2c[nH]cn2)NC(=O)[C@H](CC(N)=O)NC(=O)[C@@H]2CSCCC(=O)N3CN(CN(C3)C(=O)CCSC[C@@H](C(=O)N[C@@H](C)C(N)=O)NC1=O)C(=O)CCSC[C@H](NC(=O)[C@H](C)NC(=O)CN(C)C(=O)CN(C)C(=O)CN(C)C(=O)CN(C)C(=O)CN(C)C(=O)CNC(=O)CCCC[C@@H]1SC[C@@H]3NC(=O)N[C@@H]31)C(=O)N[C@@H](CC(=O)O)C(=O)N[C@@H](Cc1ccc(O)cc1)C(=O)N[C@@H](CO)C(=O)N1CCC[C@H]1C(=O)N[C@@H](Cc1c[nH]c3ccccc13)C(=O)N[C@@H](Cc1c[nH]c3ccccc13)C(=O)N[C@@H](Cc1c[nH]cn1)C(=O)N1CCC[C@H]1C(=O)N2 [BCY11369, [Biot]-G-[Sar5]-A-(SEQ ID NO: 10)-A] (Biotin-G[Sar][Sar][Sar][Sar][Sar]ACDYSPWWHPCNHICA-NH2; linker 8-17-21 via TATA; C-terminus assumed) | good agonism of OX40 | 130 |  | 
C[C@H](NC(=O)[C@@H]1CSCCC(=O)N2CN3CN(C2)C(=O)CCSC[C@H](NC(=O)[C@H](CCC(=O)O)NC(=O)[C@H](CO)NC(=O)[C@H](C)NC(=O)[C@@H](NC(=O)[C@H](C)NC(=O)CN(C)C(=O)CN(C)C(=O)CN(C)C(=O)CN(C)C(=O)CN(C)C(=O)CNC(=O)CCCC[C@@H]2SC[C@@H]4NC(=O)N[C@@H]42)CSCCC3=O)C(=O)N[C@@H](CC(=O)O)C(=O)N2CCC[C@H]2C(=O)N[C@@H](Cc2ccccc2)C(=O)N[C@@H](Cc2c[nH]c3ccccc23)C(=O)N[C@@H](Cc2ccc(O)cc2)C(=O)N[C@@H](CCC(N)=O)C(=O)N[C@@H](Cc2ccccc2)C(=O)N[C@@H](Cc2ccc(O)cc2)C(=O)N1)C(N)=O [BCY11371, [Biot]-G-[Sar5]-A-(SEQ ID NO: 4)-A] (Biotin-G[Sar][Sar][Sar][Sar][Sar]ACASECDPFWYQFYCA-NH2; linker 8-12-21 via TATA; C-terminus assumed) | good agonism of OX40; also recorded: particularly high levels of agonism | 37 | 24 | > 7.00
CC(C)C[C@@H]1NC(=O)[C@@H]2CCCN2C(=O)[C@H](Cc2c[nH]cn2)NC(=O)[C@H](Cc2c[nH]c3ccccc23)NC(=O)[C@@H]2CSCCC(=O)N3CN(CN(C3)C(=O)CCSC[C@@H](C(=O)N[C@@H](C)C(=O)N(C)CC(=O)N(C)CC(=O)N(C)CC(=O)N(C)CC(=O)N(C)CC(=O)N(C)CC(=O)N[C@@H](CCCCNC(=O)CCCC[C@@H]3SC[C@@H]4NC(=O)N[C@@H]43)C(N)=O)NC(=O)[C@H](CCCCN)NC(=O)[C@H](CC(N)=O)NC1=O)C(=O)CCSC[C@H](NC(=O)[C@H](C)N)C(=O)N[C@@H](CC(N)=O)C(=O)N[C@@H](Cc1ccc(O)cc1)C(=O)N[C@@H](CO)C(=O)N1CCC[C@H]1C(=O)N2 [BCY11501, A-(SEQ ID NO: 7)-A-[Sar6]-[KBiot]] (H-ACNYSPCWHPLNKCA[Sar][Sar][Sar][Sar][Sar][Sar]K(Biotin)-NH2; linker 2-7-14 via TATA; N-terminus and C-terminus assumed) | good agonism of OX40 | 325 | 120 | 
